# Reference: publication PMC6919601, “Identification of Plasmodium dipeptidyl aminopeptidase allosteric inhibitors by high throughput screening” (PLoS ONE, 2019)
# Screen size: about 110,000 compounds; about 230 (0.21%) showed an effect of 50% or more. The list shows a part of the results.
# Biological target: DPAP1 (Plasmodium falciparum, UniProt Q8IIJ9)
# Assay: primary screen, percent inhibition; read by cleavage of a fluorogenic dipeptide substrate; higher = more effect of the substance
# Set-up: species or system P. falciparum D10 trophozoite lysates; single well
# 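Also: 30 min substrate incubation versus DMSO and 10 µM JCP410 controls.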
# DPAP1, sequence (Q8IIJ9 whole entry, looked up): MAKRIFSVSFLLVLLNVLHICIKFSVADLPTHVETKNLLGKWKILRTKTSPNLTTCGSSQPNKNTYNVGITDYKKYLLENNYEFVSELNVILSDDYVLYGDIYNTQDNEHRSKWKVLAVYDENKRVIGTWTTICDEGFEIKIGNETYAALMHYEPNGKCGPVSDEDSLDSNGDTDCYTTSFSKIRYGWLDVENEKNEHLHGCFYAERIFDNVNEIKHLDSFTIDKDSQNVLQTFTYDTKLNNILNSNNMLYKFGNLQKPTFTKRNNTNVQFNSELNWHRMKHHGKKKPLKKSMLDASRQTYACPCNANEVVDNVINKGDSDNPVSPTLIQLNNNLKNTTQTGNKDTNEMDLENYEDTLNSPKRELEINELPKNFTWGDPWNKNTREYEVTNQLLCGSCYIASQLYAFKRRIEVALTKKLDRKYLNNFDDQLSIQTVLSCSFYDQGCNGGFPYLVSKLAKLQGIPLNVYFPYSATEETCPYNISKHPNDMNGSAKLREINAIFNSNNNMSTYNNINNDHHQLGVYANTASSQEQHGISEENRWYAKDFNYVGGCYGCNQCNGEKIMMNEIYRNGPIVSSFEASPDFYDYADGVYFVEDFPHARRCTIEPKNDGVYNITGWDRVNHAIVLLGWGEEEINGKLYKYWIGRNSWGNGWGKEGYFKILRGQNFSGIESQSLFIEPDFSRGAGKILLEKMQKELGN
row,Structure (SMILES),% Inhibition @ 10 uM [%]
1,CC(=O)N1N=C(c2ccc(Br)cc2)CC1c1ccco1 (stereo not drawn),-6.27
2,Cc1ccc(-c2onc(C)c2C)cc1S(=O)(=O)N1CCc2ccccc2C1,-6.26
3,N#Cc1cc2c(nc1SCC(=O)NCc1ccc3c(c1)OCO3)CCCCC2,-3.16
4,COc1ccc(CCNC(=O)CN(C)S(=O)(=O)c2cccc3nsnc23)cc1OC,0.317
5,CCC(C)NC(=O)C1CCCN(c2nnc(C)c3c(C)n(-c4ccc(Cl)cc4)nc23)C1 (stereo not drawn),5.2
6,Cc1nc2cc(-c3ccccc3)nn2c(C)c1CC(=O)NCCN1CCOCC1,-2.67
7,Cn1c(=O)c2nc(NCCN3CCOCC3)[nH]c2n(C)c1=O,3.24
8,CCOC(=O)C1=C(C)OC(N)=C(C#N)C1c1cccc(Cl)c1 (stereo not drawn),-5.17
9,COc1ccc2[nH]c3c(=O)n(Cc4ccc(C(=O)NCC5CCCO5)cc4)c(=S)[nH]c3c2c1 (stereo not drawn),-7.65
10,CSc1nc2ccccc2c(=O)n1Cc1cccc(Cl)c1,2.78
11,CN(Cc1ccccc1)C(=O)C1CCN(S(=O)(=O)c2cccc3nonc23)CC1,-0.128
12,Fc1cccc(NCc2cccc(Oc3ccccc3)c2)c1,-3.27
13,COc1c2nc(C)cc(C)c2cc2c(C)c(C)[nH]c12,-4.24
14,CN(C1=C(Cl)C(=O)N(c2ccccc2)C1=O)c1ccccc1,-3.19
15,COc1ccc(CN(C)C2CCN(C)CC2)c(C)c1C,3.8
16,CCC(CO)NC(=O)Nc1ccc2ccccc2c1 (stereo not drawn),-1.07
17,CCCc1nc(O)c(C#N)c2c1COC(C)(C)C2,-1.2
18,O=C(NCC(c1cccnc1)N1CCOCC1)c1cccs1 (stereo not drawn),4.51
19,CCC(C(=O)NCc1cccc(Cl)c1)n1nc(C)c2c(C)n(-c3ccccc3)nc2c1=O (stereo not drawn),-8.35
20,CC(C)(C)NS(=O)(=O)c1cccc(C(F)(F)F)c1,2.38
21,CCOc1c(Cl)cc(C(=O)N(Cc2ccccc2F)C2CCS(=O)(=O)C2)cc1Cl (stereo not drawn),-3.12
22,Cc1cc(C(=O)NCc2ccccc2)no1,-0.591
23,Cc1ccc(-c2nc3scc(CCNC(=O)c4ccc(C)c(C)c4)n3n2)cc1,0.483
24,Cc1ccc(S(=O)(=O)NCc2ccc(C(=O)NCCc3ccc(Cl)cc3)cc2)cc1,-3.58
25,CCC(C(=O)O)n1cc(C=O)c2ccccc21 (stereo not drawn),3.24
26,CC1=C(C(=O)OCC2CCCO2)C(c2ccccc2F)NC(=O)N1 (stereo not drawn),-1.56

row,Structure (SMILES),% Inhibition @ 10 uM [%]
1,O=C(NCc1ccccn1)c1cc(O)nc2ccc(Br)cc12,-1.79
2,CCOC(=O)C1CCN(Cc2cc(C)ccc2C)CC1,-0.192
3,N#Cc1ccc(NC(=O)Cc2ccccc2)cc1,-3.95
4,CCOc1ccc(CN2CCN(c3ccc([N+](=O)[O-])cc3)CC2)cc1,-5.41
5,O=C(CCc1nnc2ccc(N3CCCC3)nn12)NCc1ccc(CN2CCOCC2)o1,-7.74
6,Cc1cc(C)nc(/N=C(\N)Nc2ccccc2C(F)(F)F)n1,-6.7
7,Oc1cccc(CN2CCN(c3ccccc3F)CC2)c1,3.8
8,Cc1cccc2cc(C(=O)CS(=O)(=O)c3ccc(C(C)(C)C)cc3)c(=O)oc12,0.775
9,CCN(CC)C(=O)Cn1cc(SCC(N)=O)c2ccccc21,-5.23
10,O=C(O)COc1cccc(NC(=O)c2ccccc2)c1,-1.02
11,CS(=O)(=O)n1nc(-c2cccnc2)nc1NCc1cccs1,-4.98
12,S=C1NCN(CCc2ccccc2)CN1,-7.56
13,C=CCNC(=S)NC(c1ccccc1)(c1ccccc1)c1ccccc1,1.29
14,CC1CCc2c(sc3nnn(Cc4ccc(C(=O)OC(C)C)cc4)c(=O)c23)C1 (stereo not drawn),-4.85
15,CCN(CC)CCSc1nc2ccccc2[nH]1,-3.77
16,COc1ccc(-c2noc(CN(C(=O)c3ccccc3)C(C)C)n2)cc1,0.809
17,Cc1ccc(-c2nnn(CC(=O)Nc3sc4c(c3C#N)CCC4)n2)cc1,-1.85
18,CC[C@H](NC(=O)[C@H](Cc1nccs1)/N=C(\C)NS(=O)(=O)c1ccccc1)C(=O)c1nc2ccccc2o1,-6.56
19,COc1cc(CN(C(=O)c2cccc(C)c2)C2CCS(=O)(=O)C2)cc(OC)c1OC (stereo not drawn),-5.08
20,CC/N=C1/SC(CC(=O)Nc2ccccc2C(F)(F)F)C(=O)N1CC (stereo not drawn),-5.46
21,Cc1ccsc1CN1CCN(CCO)CC1,-0.856
22,CSCCOC(=O)C1=C(C)NC(=O)CC1c1ccccc1C (stereo not drawn),-6.23
23,CCCS(=O)(=O)N1CCC(C(=O)NCCN(C)Cc2ccccc2)CC1,4.81
24,COc1ccccc1-n1cnc2sc3c(c2c1=O)CCCC3,1.96
25,Fc1ccc(-c2nnc3sc(-c4cccnc4)nn23)cc1,2.89
26,COc1ccc(C(=O)NCCc2c[nH]c3ccccc23)cc1,-1.76

row,Structure (SMILES),% Inhibition @ 10 uM [%]
1,O=C(Nc1ccc(S(=O)(=O)N2CCCCCC2)cc1)c1ccccc1Cl,-0.69
2,CCCCN(CC)C(=O)Cn1nc(CC)n2c(cc3occc32)c1=O,3
3,Cc1ccc(C2CC(C(F)(F)F)n3nc(C(N)=O)cc3N2)cc1 (stereo not drawn),-2.8
4,Cc1ccc(S(=O)(=O)CCN2CCC(O)(c3ccccc3)CC2)cc1,0.778
5,Cc1ccc2nc(NC(=O)CN(C)S(=O)(=O)c3cccc4nsnc34)sc2c1,-1.43
6,Cc1ccc(-n2nc(C)c3c2OC(N)=C(C#N)C3c2ccc3c(c2Cl)OCO3)cc1 (stereo not drawn),-5.48
7,COc1ccc(N(CC(=O)Nc2cc(C)cc(C)c2)S(C)(=O)=O)c(OC)c1,0.189
8,CC1(C)Cc2nc3ccccc3c(NCc3ccc(Cl)cc3)c2C(O)C1 (stereo not drawn),-5.47
9,O=C(c1cc2ccccc2oc1=O)N1CCc2ccccc21,0.219
10,CCc1ccccc1N(CC(=O)NC)S(=O)(=O)c1ccc(C)cc1,-5.19
11,O=C(C1CC(c2ccc(F)cc2)=NO1)N1CCC(Cc2ccccc2)CC1 (stereo not drawn),2.85
12,Cc1ccc(CNC(=O)c2ccc(CS(=O)c3ccccc3C)o2)cc1 (stereo not drawn),-1.28
13,CC(NC(=O)COc1ccc(Cl)cc1Cl)c1ccccc1 (stereo not drawn),2.62
14,O=C(NCCc1ccccc1)C1CCCN(S(=O)(=O)N2CCC3(CC2)OCCO3)C1 (stereo not drawn),-2.56
15,CC1CCN(S(=O)(=O)c2ccc(NC(=O)C(C)Oc3ccccc3)cc2)CC1 (stereo not drawn),0.13
16,CCCN1C(=O)/C(=C/c2cc(C)n(C)c2C)S/C1=N/c1ccc(OC)cc1,4.11
17,CCOC(=O)c1c(-c2ccc([N+](=O)[O-])cc2)nc2ccc3ccccc3c2c1C,4.12
18,OCC1CCCCN1Cc1ccccc1Br (stereo not drawn),-6.12
19,CC(C)NCC(O)Cn1c2c(c3ccccc31)CCc1c-2cnn1-c1ccccc1 (stereo not drawn),1.7
20,CCOC(=O)c1cc(S(=O)(=O)N(C)C2CCCC(C)C2C)cn1C (stereo not drawn),-1.06
21,O=C(NC12CCCC1C1CCC2C1)NC12CCCC1C1CCC2C1 (stereo not drawn),-0.712
22,O=C(COc1ccccc1)Nc1ccc2ccccc2c1,-1.17
23,COc1ccc(CNC(=O)CN(c2ccccc2Cl)S(=O)(=O)c2ccc(C)cc2)cc1,-4.31
24,CCCCOC(=O)Nc1ccc(C(C)C)cc1,4.57
25,Cc1ccc(C2SCC(=O)Nc3c2c(O)nn3C2CCCCC2)cc1 (stereo not drawn),-7.86
26,COC(=O)c1c(NC(=O)c2ccc3c(c2)CC(c2ccccc2)OC3=O)sc2c1CCC2 (stereo not drawn),5.35

row,Structure (SMILES),% Inhibition @ 10 uM [%]
1,O=C(OCc1cccc(COC(=O)c2ccc(Cl)cc2)n1)c1ccc(Cl)cc1,4.93
2,C=CCn1c(SCC(=O)Nc2ccccc2)nc2sc(CC)cc2c1=O,3.46
3,COc1ccc(CNc2nc3ccccc3c3nc(-c4ccncc4)nn23)cc1,-0.692
4,CCC(CC)C1C(C#N)=C(N)Oc2[nH]nc(C)c21 (stereo not drawn),-1.98
5,O=C(CCN1C(=O)C2C3C=CC(C3)C2C1=O)N(CCc1ccccc1)Cc1ccccc1 (stereo not drawn),1.26
6,NC1=NC(=O)CC(C(=O)NCc2ccccc2)S1 (stereo not drawn),-6.6
7,Cc1ccc(SCC2=NNC(=O)C2)cc1,3.39
8,Cn1c2ccccc2c2cnn(CC(=O)NCCN3CCOCC3)c(=O)c21,-3.9
9,c1coc(CNc2nc3ccccc3[nH]2)c1,-3.33
10,O=C(CNC(=S)N(Cc1ccccc1)Cc1ccccc1F)NCc1ccco1,4.47
11,C=CCN1CCN(c2ccncc2S(=O)(=O)N2CCOCC2)CC1,-2.74
12,CCCOC(=O)C1=C(C)N(CC)C(=O)NC1c1ccccc1Cl (stereo not drawn),0.997
13,O=C1OC(c2ccc(-c3ccccc3)cc2)=N/C1=C\c1cccnc1,1.97
14,CCC(CC)N1CCN(c2ccc3nc(C(=O)NCc4ccc(C)cc4)ccc3n2)CC1,-5.13
15,CC(=O)c1[nH]nnc1NC(=O)c1ccccc1,-5.9
16,CN(Cc1ccccc1)C(=O)c1cc(-c2cccc(O)c2)on1,-1.84
17,Clc1cccc(OCCCN2CCCCC2)c1,3.95
18,CC(C)NC(C)C(=O)c1ccc2ccccc2c1 (stereo not drawn),-1.78
19,CCCCN(C(=O)c1ccc(F)cc1)C1=CC2CCC(C1)N2C (stereo not drawn),-3.64
20,COc1ccc(-n2nnc(-c3nsc(NC(=O)c4ccc(C)cc4)n3)c2C)cc1OC,-0.48
21,C=CCNc1nc(Nc2ccc(F)cc2)nc(OC(C(F)(F)F)C(F)(F)F)n1,13.5
22,NC(=O)C1CCN(C(=O)c2ccc3c(c2)sc2nc(-c4ccc(F)cc4)cn23)CC1,31.5
23,CCCc1nnc(NC(=O)Cc2coc3cc(C)ccc23)s1,1
24,Cc1[nH]c2ccccc2c1CN1CCC(Cc2ccccc2)CC1,-1.77
